In the supplement of paper PMC9446081:
Screen size: about 39,000 compounds; about 220 (0.56%) showed activity. The list shows a part of the results.

System: Escherichia coli K-12 BW25113
Experiment: relative growth (OD600 normalised to plate interquartile mean) (fraction); higher = less growth inhibition, active = 0.2 or less
Conditions: 50 µM; LB; incubation time: overnight (16-24 h)
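Note: static incubation at 37 °C against the wild-type strain, values averaged over two biological replicates.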

SMILES	relative growth
CNC(=O)C[C@H]1CC[C@@H]2[C@H](COC[C@H](O)CN2C(=O)Nc2ccc3c(c2)OCO3)O1	inactive: 0.994
C[C@H](CO)N1C[C@H](C)[C@@H](CN(C)CC2CC2)OCCCC[C@H](C)Oc2ccc(NS(=O)(=O)c3ccc(Cl)cc3)cc2C1=O	inactive: 0.988
C[C@H](CO)N1C[C@H](C)[C@H](CN(C)Cc2ccc3c(c2)OCO3)Oc2ccc(NC(=O)C3CC3)cc2C1=O	inactive: 0.959
O=C(C[C@@H]1C[C@@H]2c3cc(NS(=O)(=O)c4ccccc4)ccc3O[C@@H]2[C@@H](CO)O1)NC1CCCCC1	inactive: 0.998
COc1ccc(S(=O)(=O)Nc2ccc3c(c2)C(=O)N([C@@H](C)CO)C[C@@H](C)[C@H](CN(C)S(=O)(=O)c2ccccc2)O3)cc1	inactive: 1.01
C[C@H]1CCCCO[C@@H](CN(C)C(=O)Nc2ccc(C(F)(F)F)cc2)[C@@H](C)CN([C@@H](C)CO)C(=O)c2cc(NS(=O)(=O)c3ccccc3)ccc2O1	inactive: 1.04
C[C@H]1CN([C@@H](C)CO)C(=O)c2cccc(NC(=O)C3CCOCC3)c2O[C@H]1CN(C)S(=O)(=O)c1cn(C)cn1	inactive: 0.99
C[C@@H]1CCCCO[C@H](CN(C)C(=O)Nc2ccc(F)cc2)[C@H](C)CN([C@H](C)CO)C(=O)c2cc(NS(=O)(=O)c3cccs3)ccc2O1	inactive: 1.02
Cc1noc(C)c1NC(=O)Nc1ccc2c(c1)C(=O)N([C@@H](C)CO)C[C@H](C)[C@H](CN(C)Cc1ccc(Oc3ccccc3)cc1)O2	inactive: 0.986
C[C@@H]1CN([C@H](C)CO)C(=O)c2cc(NC(=O)c3ccncc3)ccc2O[C@@H]1CN(C)S(=O)(=O)c1cn(C)cn1	inactive: 0.964
C[C@H](CO)N1C[C@H](C)[C@H](CN(C)C(=O)CCCN(C)C)OCCCC[C@H](C)Oc2ccc(NS(C)(=O)=O)cc2C1=O	inactive: 0.988
C[C@@H]1CN([C@H](C)CO)C(=O)Cc2cc(NC(=O)Nc3ccccc3)ccc2O[C@H]1CN(C)C(=O)Nc1ccc(C(F)(F)F)cc1	inactive: 1.01
C[C@@H]1CN([C@@H](C)CO)C(=O)c2cc(NC(=O)c3ccncc3)ccc2O[C@@H](C)CCCCO[C@H]1CN(C)C(=O)Nc1ccc(F)cc1	inactive: 0.974
Cc1cc(C(=O)Nc2cccc3c2O[C@@H](CN(C)Cc2ccncc2)[C@H](C)CN([C@@H](C)CO)C3=O)n(C)n1	inactive: 0.992
COc1ccc(NC(=O)N(C)C[C@@H]2OCCCC[C@H](C)Oc3ccc(NS(=O)(=O)c4cccs4)cc3C(=O)N([C@@H](C)CO)C[C@@H]2C)cc1	inactive: 1.02
COc1ccc2nc(S(=O)Cc3ncc(C)c(OC)c3C)[nH]c2c1 (centres undefined)	inactive: 1.06
Cc1ccc(S(=O)(=O)Nc2cccc3c2O[C@@H](CN(C)S(=O)(=O)c2cccs2)[C@@H](C)CN([C@@H](C)CO)C3=O)cc1	inactive: 1.01
CC(C)NC(=O)Nc1ccc2c(c1)C(=O)N([C@H](C)CO)C[C@@H](C)[C@H](CN(C)C(=O)C1CCCCC1)OCCCC[C@H](C)O2	inactive: 0.987
C[C@H](CO)N1C[C@H](C)[C@@H](CN(C)C(=O)NC2CCCCC2)OCCCC[C@H](C)Oc2ccc(NS(=O)(=O)c3ccccc3)cc2C1=O	inactive: 1.02
C[C@@H]1CN([C@@H](C)CO)S(=O)(=O)c2ccc(C#CCN(C)C)cc2O[C@H]1CN(C)S(=O)(=O)c1cccc(F)c1	inactive: 1.02

SMILES	relative growth
COc1ccc([Si](C)(C)[C@@H]2[C@@H](CCO)O[C@]3(C(=O)N(Cc4ccc(N(C=O)c5ccccc5)cc4)c4ccccc43)[C@H]2C)cc1	inactive: 1.04
C[C@@H]1CN([C@@H](C)CO)C(=O)Cc2cc(NC(=O)CCC(F)(F)F)ccc2O[C@@H]1CN(C)S(=O)(=O)c1ccccc1	inactive: 0.989
CC(CS)C(=O)N1CCCC1C(=O)O (centres undefined)	inactive: 1.05
CCCCCS(=O)(=O)CCCCCCCCCCn1c(-c2ccc(O)cc2)c(C)c2cc(O)ccc21	inactive: 1.03
C[C@@H]1CN([C@@H](C)CO)C(=O)Cc2cc(NC(=O)Nc3ccc(C(F)(F)F)cc3)ccc2O[C@@H]1CN(C)Cc1ccc(Cl)c(Cl)c1	inactive: 1.02
C[C@@H]1CCCCO[C@@H](CN(C)Cc2ccncc2)[C@@H](C)CN([C@H](C)CO)C(=O)c2cc(NC(=O)Nc3ccc(F)cc3)ccc2O1	inactive: 0.999
C[C@@H]1CN([C@H](C)CO)C(=O)c2cc(NC(=O)NC3CCCCC3)ccc2O[C@@H](C)CCCCO[C@@H]1CN(C)C(=O)Nc1ccccc1	inactive: 1
Cc1ccc(S(=O)(=O)N(C)C[C@@H]2Oc3ccc(NC(=O)Nc4ccc(C(F)(F)F)cc4)cc3CC(=O)N([C@H](C)CO)C[C@H]2C)cc1	inactive: 1.03
COc1ccccc1CNC(=O)C[C@@H]1C[C@H]2c3cc(NC(=O)NC4CCCC4)ccc3O[C@H]2[C@@H](CO)O1	inactive: 1.01
C[C@@H]1CN([C@H](C)CO)C(=O)c2cccc(NC(=O)c3ccncc3)c2O[C@H]1CN(C)S(=O)(=O)c1ccc(F)cc1	inactive: 1.02
COc1ccc(S(=O)(=O)Nc2cccc3c2O[C@H](CN(C)Cc2ccc(-c4ccccc4)cc2)[C@H](C)CN([C@H](C)CO)C3=O)cc1	inactive: 1.04
C[C@@H]1CCCCO[C@@H](CN(C)Cc2ccc(Cl)c(Cl)c2)[C@H](C)CN([C@@H](C)CO)C(=O)c2cc(NC(=O)Nc3ccc4c(c3)OCO4)ccc2O1	inactive: 0.985
CCO[C@H]1OC(C(N)=O)=C[C@@H](C)[C@@H]1CCCO	inactive: 1.01
C[C@@H]1CN([C@H](C)CO)C(=O)Cc2cc(NC(=O)C3CC3)ccc2O[C@H]1CN(C)S(=O)(=O)c1ccccc1	inactive: 1.02
C[C@@H](N)CCCP(=O)(O)O	inactive: 1.01
C[C@@H]1CN([C@H](C)CO)C(=O)c2cccc(NC(=O)Nc3ccc(F)cc3)c2O[C@H]1CN(C)Cc1ccc(Cl)c(Cl)c1	inactive: 0.951
C[C@@H]1CCCCO[C@@H](CN(C)Cc2ccc(C(=O)O)cc2)[C@H](C)CN([C@@H](C)CO)C(=O)c2cc(NS(=O)(=O)c3ccc(F)cc3)ccc2O1	inactive: 0.995
C[C@H](CO)N1C[C@H](C)[C@@H](CN(C)S(=O)(=O)c2ccc3c(c2)OCCCO3)OCc2cn(nn2)CCCC1=O	inactive: 0.999
Cl.[NaH]	inactive: 1.01
COc1ccccc1C(=O)Nc1ccc2c(c1)C(=O)N(C)[C@@H]1CC[C@H](CC(=O)NCc3ccc(Cl)c(Cl)c3)O[C@@H]1CO2	inactive: 1.02

SMILES	relative growth
Cn1[nH]c(=O)cc1C(F)(F)F	inactive: 1
N[C@@H](Cc1ccc(O)cc1)C(=O)O	inactive: 0.973
Cc1noc(C)c1S(=O)(=O)Nc1ccc2c(c1)CC(=O)N([C@H](C)CO)C[C@H](C)[C@H](CN(C)C(=O)NC1CCCCC1)O2	inactive: 0.995
CC(C)(C)C(=O)Nc1ccccc1F	inactive: 1
COCCNC(=O)C[C@@H]1CC[C@H](NS(=O)(=O)c2ccc(C)cc2)[C@H](CO)O1	inactive: 1.04
C[C@@H]1CN([C@H](C)CO)C(=O)c2cc(NC(=O)Nc3ccc(F)cc3)ccc2O[C@@H](C)CCCCO[C@H]1CN(C)C(=O)c1ccccc1	inactive: 0.989
O=C(C[C@H]1C[C@H]2c3cc(NS(=O)(=O)c4ccc(F)cc4)ccc3O[C@H]2[C@@H](CO)O1)NCCc1ccccc1	inactive: 1.03
COc1cc(C(=O)NCCCN2CCCN(CCCNC(=O)c3cc(OC)c(OC)c(OC)c3)CC2)cc(OC)c1OC	inactive: 1.01
COc1ccc(S(=O)(=O)Nc2ccc3c(c2)C(=O)N([C@@H](C)CO)C[C@@H](C)[C@H](CN(C)Cc2ccc(Cl)c(Cl)c2)OCCCC[C@@H](C)O3)cc1	inactive: 1
CCCN(C)C[C@@H]1OCCCC[C@@H](C)Oc2ccc(NS(C)(=O)=O)cc2C(=O)N([C@@H](C)CO)C[C@@H]1C	inactive: 0.972
COc1ccc2c3c(n(c2c1)C)[C@@H](CO)N(C[C@]13CN(CC2CCOCC2)C1)C(=O)Cc1ccccn1	inactive: 0.997
CN(C)CC(=O)N1[C@@H]2Cn3c(ccc(-c4cccnc4)c3=O)[C@H]1[C@@H](C(=O)NC1CCC1)[C@@H]2CO	inactive: 0.985
C[C@@H]1CN([C@H](C)CO)C(=O)c2cccc(NS(=O)(=O)c3cn(C)cn3)c2O[C@H]1CN(C)Cc1ccc(C(=O)Nc2ccccc2N)cc1	inactive: 0.994
C[C@@H]1CN([C@H](C)CO)C(=O)c2cccc(NS(=O)(=O)c3cccs3)c2O[C@H]1CN(C)C(=O)Nc1cccc2ccccc12	inactive: 0.987
CC/1=C(CCC(=O)O)/C/2=C/c3[nH]c(c(c3CCC(=O)O)C)/C=C/3\N=C(/C=C/4\N=C(\C=C1/N2)C(=C4C)C=C)C(=C3C)C=C	inactive: 0.819
COc1ccc(S(=O)(=O)N(C)C[C@@H]2OCCCC[C@H](C)Oc3ccc(NS(=O)(=O)c4cn(C)cn4)cc3C(=O)N([C@@H](C)CO)C[C@H]2C)cc1	inactive: 0.966
C[C@@H]1CN([C@H](C)CO)C(=O)Cc2cc(NS(=O)(=O)c3cn(C)cn3)ccc2O[C@@H]1CN(C)C(=O)Nc1ccccc1	inactive: 0.99
Cc1ccc(S(=O)(=O)N(C)C[C@@H]2Oc3c(NS(=O)(=O)c4cccs4)cccc3C(=O)N([C@H](C)CO)C[C@@H]2C)cc1	inactive: 0.989
C[C@H]1CN([C@@H](C)CO)C(=O)c2cc(NS(=O)(=O)c3ccc(F)cc3)ccc2O[C@H]1CN(C)Cc1ccncc1	inactive: 0.992
